This is an account of results in the RNAGym collection of RNA variant scans (doi:10.7554/elife.90254).

The chains are these.
B1: LINE1-full (parent)
chain: UACGUAGGUGGUUUUCCCCUGAUAGUGCUAAGGGGGCCUGGAAGUUUGGACUGGGCAGAGCUCAACACAGCGUGGCAAAGUGGCUGUGGCUAGACUGCCUCUCUGGAUUCCUCGUCACUCAGCAGGGCAUCUCUGAGAGAAAUGCC

The source gives no read counts; variants with many changes may rest on few reads.

The variants in this data set derive from B1. Briefly: self-cleavage, relative activity (ratio to wild type); higher = more cleavage; in vitro, sequencing; the parent is a self-cleaving ribozyme.
For CACGUAGGUGGUUUUCCCCUGAUAGUGCUAAGGGGGCCUGGAAGUUUGGACUGGGCAGAGCUCAACACAGCGAGGCAAAGUGGCUGUGGCUAGACUGCCUCUCUGGAUUCCUCGUCACUCAGCAGGGCAUCCCUGAGAGAAAUGCC, the self-cleavage was found to be 1.02.

Turning to CACGUAGGUGGUUUUCCCCUGAUAGUGCUAAGGGGGCCUGGAAGUUUGGACUGGUCAGAGCUCAACACAGCGUGGCAAAGUGGCUGUGGCUAGACAGCCUCUCUGGAUUCCUCGCCACUCAGCAGGGCAUCUCUGAGAGAAAUGCC, the self-cleavage came to 0.03.

On to UACGUAGGUGGAUUUCCCCUGAUAGUGCUAAGGGGGCCUGGAAGUUUGGACUGGGCAGAACUCAACACAGCGCGGCAAAGUGGCUGUGGCUAGACUGCCUCUCUGGAUUCCCCGUCACUCAGCAGGGCAUCACUGGGAGAAAUGCC, for which the self-cleavage stood at 0.11.

AACGUAGGUGGUUUUCCCCCGAUAGUGCUAAGGGGGCCUGGAAGUUUGGACUGGGCAGAGCUCAACACAGCGUGGCAAAGUGGCCGUGGCUAGACUGCCUCUCUGGAUUCCUCGUCACUCAGCAGGGCAUUCCUGAGAGAAAUGCC: the self-cleavage turned out to be 0.37.

Turning to UACGUAGGUGGUUUUCCCCUGAUAGUGCUAAGGGGGCCUGGAAGUUUGGACUAGGCAGAGCUCAACACAGCGUGGCAAAGUGGUUGUGGCUAGACUGCCUCUCCGGAUUCCUCGUCACUCAGCAGGGCAUCUCUGAGAGAAAUGCC, the self-cleavage was 0.1.

On to UACGUAGGUGGUUUUCCCUUGAUAGUGCUAAGGGGGCCUGGAAGUUUGGACUGGGCAGAGCUCAACACAGCGUGGCGAAGUGGCUGUGGCUAGACUGCCUCCCUGGAUUCCUCGUCACUCAGCAGGGCGUCUCUGAGAGAAAUGCC, for which the self-cleavage was determined as 0.61.

Turning to UACGUAGGUGGUUUUCCCCUGAUAGUGCUUAGGGGGCCUGGGAGUUUGGACUGGGCAGAGCUCAACACAGCGUGGCAAAGUGGCUGUGGCUAGGAUGCCUCUCUGGAUUCCUCGUCACUCAGCAGGGCAUCUCUGAGAGAAAUGCC, the self-cleavage came to 0.

In the case of UACGUAGGUGGUUCUCCCCUGAUAGUGCUAAGGGGGCCUGGAAGUUUGGACUGGGUGGAGCUCAACACUGCGUGGCAUAGUGGCUGUGGCUAGACUGCCUCUCUGGAUUCCUCGUCACUCAGCAGGGCACUUCUGAGAGAAAUGCC, the self-cleavage came to 0.06.

Regarding UACGUAGGUGGUUUUCCCCUGAUAGUGCUAAGGGGGCCUGGAAGUCUGGACUGGGCAGAGCUCGACACAGCGCGGCAAAGUGGCUGUGGCUAGACUGCCUCUCUGGAUUCCACGUCACUCAGCAGGGCAUCUCUGAGAGAAAUGCC, the self-cleavage was 0.99.

Turning to UACGUAGGUGGUUUUCCCCUGAUAGUGCUAAGGGGGCCUGGAAGCUUGGACUGGGCAGAGCUCAACACAGCGAGGCAAAGUGGCUGUAGCUAGACUGCCUCUCUGGAUUCCUCGUCACUCAGCAGGGCAUCUCUGAGAGAAAUGCC, the self-cleavage amounted to 0.07.

In the case of UACGUAGGUGGUUCUCCCCUGAUAGUGCUAAGGGGGCCUGGAAGUUUGGACUGGGCAGAGCUCAACACAGCGUGGCGAAGUGGCUGUGGCUAGGCUGCCUCUCUGGAUUCCUCGUCACUCAGCGGGGCAUCUCUGAGAGAAAUGCC, the self-cleavage came to 0.

With UACGUAGGUGGCCUUCCCCUGAUAGUGCUAAGGGGGCCUGGAUGUUUGGACUGGGCAGAGCUCAACACAGCGUGGCUAAGUGGCUGUGGCUAGACUGCCUCUCUGGACUCCCCGUCACUCAGCAGGGCAACUCUGAGAGAAAUGCC, the self-cleavage is 2.76.

Consider UACGCAGGUGGAUUUCCCCUGAUAGUGCUAAGGGGGCCUGGAAGUUUGGGCUGGGCAGAGCUCAACACAGCGUGGCAAAGUGGCUGUGGCUAGACUGCCUCUCUGGAUUCCUCGUCACUCAGCAGGGCGUCUCUGUGAGAAAUGCC, for which the self-cleavage is 1.44.

With UACGUAGGUGGUUUUCCCCUGAUAGUGCUAAGGGGGCCUGGAAGUUAGGACUGGGCAGAGCUCAACACAGCGUGGCAAGGUGGCUGUGGCUAGACUGCCUCUCUGGAUUCCUCGUCACUCAGCAGGGCAUCUCUGAGAGAAGUGCC, the self-cleavage is 1.12.

On to UACGUAGGUGGUUUACCCCUGACAGUGCUAAGGGGGCCUGGAAGUUUGGACUGAGCAGAGCUCAACACGGCGUGGCAAAGUGGCUGUGGCUAGACUGCCUCUCUGGAUUCCUCGUCACUCAGCAGGGCACCUCUGAGAGCAUAGCC, for which the self-cleavage amounted to 0.

As for UACGUAGGUGGUUUUCCCCUGAUAGUGCUAAGGGGGCCUGGAGGUUUGGACUGGGCAGAGCUCAACACAGCGUGACAAAGUGGCAGUGGCUAGACUGCCCCUCUGGAUUCCUCGCAACUCAGCAGGGCAUCUCUGAGAGAAAUGCC, the self-cleavage came out at 0.

In the case of UACGUAGGUGGUUUUCCCCUGAUAGUGCUAAGGGGGCCUGGAAGUUUGGACUGGGCAGAGCUCAACACAGCGUGGCGAAGUGGCUGUGGCUAGACUGCCUCUCUGGAUUCCUCGUCACUCAGCAGGGCUUCUCCGAGAGAAAUGCC, the self-cleavage is 0.88.

With UACGUAGGUGGUUUUCCCCUGAUAGUGCUAAGGGGGCCUGGAAGUUUGGACUGGGCAGAGCUCAACACAGCGUGGCAAAGCGGCAGUGGCUAGACUGCCUCUCUGGAUUCCUCGUCACCCAGCAGGGCAUCUCUGAGAGAAAAGCC, the self-cleavage worked out at 0.34.

For UACGUAGGUGGUUUUCCCAUGAUAGUGCUAAGUGGGCCUGGAAGCUUGGACUGGGCAGAGCUCAACACAGCGAGGCAAAGUGGCUGUGGCUAGACUGCCUCUCUGGAUUCCUCGUCACUCAGCAGGGCAUCUCUGAGAGAAAUGCC, the self-cleavage was 1.74.

Consider CACGUAGGUGGUUUUCCCCUGGUAGUGCCAAGGGGGCCUGGAAGUUUGGACUGGGCAGAGCUCAACACAGCGUGGCAAAGUGGCUGUGGCUAGACUGCCUCUCUGGAUUCCUCGUCACUCAGCAGGGCAUCUCUGAGAGAAAUGCC, for which the self-cleavage worked out at 1.62.
